Measured values as given in article PMC12040169 (PLOS Biology, 2025).
This is one part of the list.

Tested on: T1, C. trachomatis L2/434/Bu expressing GFP (CTL2-GFP)
T1 construct: L2/434/Bu GFP intracellular growth in HeLa cells
Set-up: species or system HeLa; C. trachomatis total inclusion area by high-content imaging, normalised to DMSO
Conditions: total inclusion area; 28.5 h, 10 µM; inhibitor
How it was run: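 Imaging read-out: GFP inclusions and Hoechst nuclei captured by high-content imaging after fixation. Inclusion area/number = chlamydial growth; nuclei count = host cell viability. MIC calculated per earlier method.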

Compound | % of control remaining
CCOC(=O)Cc1csc(NS(=O)(=O)c2ccc(Br)cc2C)n1 [CBK200027] | 82.5389
CC(=O)Nc1ccc(Nc2cc(-c3ccsc3)ncn2)cc1 [CBK090717] | 58.0387
CCNc1cccnc1N1CCN(C(=O)CCC(=O)c2ccc(NS(C)(=O)=O)cc2)CC1 [CBK010701] | 102.557
O=C1N[C@@H]2CCN(CC(=O)N3CCCC3)C[C@@H]2CCCCCOc2ccccc21 [CBK292141] | 85.6639
c1ccc(Cn2cncc2-c2cncn2CCCN2CCCCC2)cc1 [CBK281490] | 71.9202
COc1ccc(C(=O)O)cc1S(=O)(=O)Nc1cccc(C=Cc2ccccn2)c1 [CBK297763] | 53.2481
COc1cc(/C=N/NC(=O)c2n[nH]c3c2CCC3)ccc1O [CBK262881] | 108.59
Cc1nc2c(C(=O)NCCOCCO)cnn2c(C)c1Cc1cccc(OC(F)(F)F)c1 [CBK167454] | 47.3188
COc1cc(C)c(Nc2cc(-c3cccc(N(C)C)c3)ncn2)cc1OC [CBK090780] | 7.1281
O=C(OCc1cc2ccccc2o1)N1CCOCC1 [CBK200162] | 90.5844
Cc1ccc(C(=O)Nc2c(C(=O)N3CCN(Cc4ccccc4)CC3)cnn2-c2ccccc2)cc1 [CBK263053] | 96.1534
CN1CCCN(c2cncc(-c3ccc(F)cc3F)n2)CC1 [CBK065858] | 79.9761
COC(=O)C(CCSC)NC(=O)c1ccc(C(F)(F)F)cc1 (stereo not drawn) [CBK057452] | 85.2423
O=c1oc(-c2ccncc2)nn1Cc1ccccc1F [CBK283692] | 75.7543
CCCCCCSc1ccc(C(=O)CCCN2CCOCC2)cc1 [CBK010344] | 100.092
O=C(Cc1ccc(Cl)cc1)N1CCc2c([nH]c3ccccc23)C12CCN(Cc1ccc(F)cc1)C2 (stereo not drawn) [CBK059453] | 56.0062
CCn1c(COc2cccc3cccnc23)nnc1SCC(=O)c1ccc(F)cc1 [CBK265656] | 99.8993
CCNC(=O)Nc1ccccc1C(=O)NC1CCCCC1 [CBK175266] | 117.935
Cc1ccc(S(=O)(=O)/N=C(\NC(C)C(=O)O)c2ccccc2)cc1 (stereo not drawn) [CBK263099] | 109.057
Cc1c[n+]2ccsc2n1Cc1ccccc1C#N [CBK260951B] | 78.4965
COC(=O)c1c(NC(=O)CCCC(=O)O)sc(C)c1C [CBK265382] | 98.1106

Compound | % of control remaining
CCN(CC)CCN1C(=O)C(O)=C(C(=O)c2ccc(C)o2)C1c1ccccn1 (stereo not drawn) [CBK266584] | 85.3613
COC(=O)COc1ccc(NC(=O)c2ccc([N+](=O)[O-])c(C)c2)cc1 [CBK268338] | 123.453
Cc1nn(Cc2ccccc2)c(C)c1NC(=O)CSc1nc2sc3c(c2c(=O)n1C)CCC3 [CBK266069] | 81.1657
O=C(c1c(F)cccc1F)N1CCC(O)(c2cccnc2F)CC1 [CBK284359] | 46.7407
O=C(Cc1cc(F)c(F)c(F)c1)NCCc1c[nH]c2ccc(Cl)cc12 [CBK159768] | 81.6894
O=C(Nc1ccc([C@@H](O)[C@H]2COCC(=O)N2Cc2ccccn2)cc1)c1cccs1 [CBK289700] | 91.5282
O=C(CC1CCCC1)N1CCCC(c2nnc(-c3cccs3)o2)C1 (stereo not drawn) [CBK284631] | 105.078
CCC(CC)C(=O)N(C)c1c(C)nc2ccc(C(=O)N(C)CCN(C)C)cn12 [CBK146491] | 100.349
Cc1nn(C(C)CC(=O)O)c(C)c1Br (stereo not drawn) [CBK269138] | 95.2381
CCN(CC)C(=O)CCCc1[nH]nc(O)c1Cc1c(Cl)cccc1Cl [CBK081524] | 91.3817
CCCCC(CC)C(=O)N1CCN(c2ccc(OC)cc2)CC1 (stereo not drawn) [CBK091414] | 91.0094
Cn1ccc(C2CCCCCN2S(=O)(=O)c2ccc3[nH]c(=O)[nH]c(=O)c3c2)n1 (stereo not drawn) [CBK286407] | 54.7439
N#Cc1ccc(Cn2ccnc(N3CCC(Sc4ccccc4)CC3)c2=O)cc1 [CBK153653] | 84.062
O=C(O)Cn1nnc(-c2ccc(OCc3cccc(C(F)(F)F)c3)cc2)n1 [CBK267034] | 130.416
CC(C)Cc1nc(Cn2cnc3c(cnn3C)c2=O)no1 [CBK306256] | 66.0819
COc1ccc2cc(C#N)c(SCC(=O)Nc3ccc(F)cc3)nc2c1 [CBK068765] | 105.847
COc1cc(C(=O)NC/C=N/O)cc(OC)c1OC [CBK015662] | 63.15
O=C(c1ccsc1NS(=O)(=O)Cc1ccccc1[N+](=O)[O-])N1CCOCC1 [CBK042294] | 101.558
O=c1[nH]c(CSc2nnc(CCCOc3ccc(Cl)cc3Cl)o2)nc2ccccc12 [CBK268861] | 88.7783
CC(C)(C)c1cc(C(=O)Cn2c(=N)n(Cc3ccccc3)c3ccccc32)cc(C(C)(C)C)c1O [CBK262480B] | 66.9265
CC1CCN(C(C)Cn2cncc2-c2cnn(C)c2)CC1 (stereo not drawn) [CBK281703] | 113.55

Compound | % of control remaining
CC(C)(C)OC(=O)N1CCc2[nH]nc(Nc3ccccc3)c2C1 [CBK281541] | 98.1596
Cc1ccc(NC(=O)CC2SC(NC3CCCCC3)=NC2=O)c(C)c1 (stereo not drawn) [CBK059500] | 48.0024
Nc1ccccc1Sc1nccc(C(F)(F)F)n1 [CBK006263] | 65.0031
COc1ccccc1-c1cnc2[nH]c(=O)n([C@@H](C)c3ccccc3)c2n1 [CBK064717] | 91.9508
O=C(CN1CCOCC1)c1ccc(O)o1 [CBK019286] | 76.4232
CN(C)CCN1CCN(c2nc(-c3cccc4cccnc34)cnc2N)CC1 [CBK063464] | 110.977
Cc1cccn2c(=O)cc(CN3CCC(n4ccnc4)CC3)nc12 [CBK305519] | 61.25
Cc1ccc(S(=O)(=O)NCCCN2CCOCC2)cc1C [CBK262934] | 108.408
CC1CN(c2cc(CO)c(F)cn2)CC2(CCOC2C)O1 (stereo not drawn) [CBK304754] | 56.9874
CC(C)Nc1nc2cc(Cl)c(Cl)cc2nc1OCCN(C)C [CBK113419] | 84.4978
O=C(COc1nc2ccccc2s1)N1N=CCC1c1ccccc1 (stereo not drawn) [CBK270188] | 44.1739
CC1(C)NC(=O)N(CC(O)CN(C2CCCCC2)C2CCCCC2)C1=O (stereo not drawn) [CBK264578] | 92.3338
CCOC(=O)CSc1nnc(-c2ccncc2)n1-c1ccccc1 [CBK263350] | 114.406
O=C(c1ccc(S(=O)(=O)N2CCCC2)cc1)N1CCN(C/C=C/c2ccccc2)CC1 [CBK263587] | 75.129
CC(=O)Nc1ccc(/C=N/c2ccccc2)cc1 [CBK012258] | 82.1279
Cc1ccc([N+](=O)[O-])c(OCCNCCN(C)C)c1 [CBK267822C] | 80.7452
COc1nccc(N2CCC3(CC(=O)NC3=O)C2)c1C#N (stereo not drawn) [CBK307246] | 45.6064
COc1nccnc1-c1cnn(Cc2ccccc2)c1 [CBK107090] | 83.9991
CCc1cc(C(=O)NC(c2ccncc2)c2cccs2)n(C)n1 (stereo not drawn) [CBK281482] | 93.1581
O/N=C(\Cn1cncn1)c1ccc(Cl)cc1Cl [CBK261085] | 102.906
CCN(CC)CCC(C(=O)c1ccccc1)S(C)(=O)=O (stereo not drawn) [CBK022802] | 84.5958

Compound | % of control remaining
CC1(C)CC(NC(=O)C(=O)NC2CC(C)(C)NC(C)(C)C2)CC(C)(C)N1 [CBK261951] | 122.959
Cc1ccsc1C(=O)N1CCN(Cc2cc(=O)n3ccccc3n2)CC1 [CBK305044] | 61.8156
O=C(COc1ccc(NS(=O)(=O)c2ccc3oc4cc([N+](=O)[O-])ccc4c3c2)cc1)N1CCOCC1 [CBK268252] | 84.266
Cc1cccc(N(CC(=O)NCc2ccco2)S(=O)(=O)c2ccccc2)c1 [CBK263571] | 82.0106
Cn1ncc(Cl)c1C1CCCCCN1S(=O)(=O)c1ccc2[nH]c(=O)[nH]c(=O)c2c1 (stereo not drawn) [CBK286303] | 89.3629
CC(C)N1CCC(C(=O)NC(=O)NCCOc2cccc3ccccc23)CC1 [CBK034807] | 90.9967
COCCc1ccccc1NC1CCN(c2nccs2)CC1 [CBK305476] | 76.9449
O=C(O)Cn1nnnc1CN1CCc2ccccc2C1 [CBK287097] | 106.893
Cc1cnc2[nH]c(C3CCCN(C(=O)c4cccnc4C)C3)cc2c1 (stereo not drawn) [CBK285169] | 121.458
Cc1ccsc1-c1nc2cnccn2c1NC1CCCC1 [CBK283524] | 90.1135
NCC(NC(=O)c1cnc(-c2ccncc2)s1)C1CCCCC1 (stereo not drawn) [CBK306502C] | 31.8483
CCOC(=O)c1c(C)n(-c2ccc(C)cc2)c2ccc(Oc3ncccc3C#N)cc12 [CBK261310] | 89.9379
CC(=O)Nc1ccc(C(=O)CSc2nnc(-c3ccncc3)o2)cc1 [CBK266349] | 121.225
Cc1cc(C)n2ncc(C(=O)N3CCCC3c3ccc(F)cc3)c2n1 (stereo not drawn) [CBK305885] | 52.5095
O=S(=O)(Nc1cccc(-c2cnco2)c1)c1cc(C(F)(F)F)cc(C(F)(F)F)c1 [CBK067127] | 87.0663
CCCc1ccc(S(=O)(=O)Nc2ccc(C(=O)OC)cc2)cc1 [CBK028682] | 98.9616
O=C1COc2ccccc2CCCCC2(CCCNC2)CN1 (stereo not drawn) [CBK292166] | 118.81
Cc1cc(Cl)ccc1OCCCC(=O)N1CCc2ccccc21 [CBK059016] | 110.676
